In article PMC7875971, “Cavin1 intrinsically disordered domains are essential for fuzzy electrostatic interactions and caveola formation” (Nature Communications, 2021):
These are yes or no findings as the source states them, for the method shown. For part of these data: In cells and extracts the contact can be indirect. Some results given as binding are weak or reduced against the parent protein; the word gives no strength. For part of these data: Sequences can lack the tags named with a protein.

Protein sequences, listed by entry. Tags and fused reporters are not part of them. Lines headed by an entry give the natural chain unless they say otherwise; changes in a name come on top. Chains listed by the source or under a name are the forms on record and can include a tag or linker.
UniProt Q03135: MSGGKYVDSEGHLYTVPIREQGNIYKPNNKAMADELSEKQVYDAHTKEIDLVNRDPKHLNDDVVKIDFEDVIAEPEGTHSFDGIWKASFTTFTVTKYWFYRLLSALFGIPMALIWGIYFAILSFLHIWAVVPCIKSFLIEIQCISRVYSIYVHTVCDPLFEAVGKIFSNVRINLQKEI
mCherry-CAV1(1–100) M1 (Q03135, form named): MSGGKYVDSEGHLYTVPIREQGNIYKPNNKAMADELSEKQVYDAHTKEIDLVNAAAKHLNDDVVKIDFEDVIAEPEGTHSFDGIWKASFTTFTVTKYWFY

T1: unlabelled purified Cavin1 (mouse) (UniProt O54724)
T1 sequence: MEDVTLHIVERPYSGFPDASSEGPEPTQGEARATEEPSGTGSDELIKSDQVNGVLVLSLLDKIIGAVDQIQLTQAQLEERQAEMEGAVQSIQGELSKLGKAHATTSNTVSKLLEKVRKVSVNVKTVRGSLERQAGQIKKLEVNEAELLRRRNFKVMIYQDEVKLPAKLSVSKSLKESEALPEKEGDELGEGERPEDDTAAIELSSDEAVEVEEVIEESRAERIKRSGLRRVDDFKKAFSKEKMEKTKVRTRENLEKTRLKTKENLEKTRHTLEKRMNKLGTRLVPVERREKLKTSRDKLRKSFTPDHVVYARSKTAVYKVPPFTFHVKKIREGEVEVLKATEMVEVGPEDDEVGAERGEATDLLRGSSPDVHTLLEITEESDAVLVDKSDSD

T2: His-ubiquitin- and GFP-tagged full-length Cavin1 (recombinant GFP-Cavin1) (mouse) (UniProt O54724)
T2 sequence: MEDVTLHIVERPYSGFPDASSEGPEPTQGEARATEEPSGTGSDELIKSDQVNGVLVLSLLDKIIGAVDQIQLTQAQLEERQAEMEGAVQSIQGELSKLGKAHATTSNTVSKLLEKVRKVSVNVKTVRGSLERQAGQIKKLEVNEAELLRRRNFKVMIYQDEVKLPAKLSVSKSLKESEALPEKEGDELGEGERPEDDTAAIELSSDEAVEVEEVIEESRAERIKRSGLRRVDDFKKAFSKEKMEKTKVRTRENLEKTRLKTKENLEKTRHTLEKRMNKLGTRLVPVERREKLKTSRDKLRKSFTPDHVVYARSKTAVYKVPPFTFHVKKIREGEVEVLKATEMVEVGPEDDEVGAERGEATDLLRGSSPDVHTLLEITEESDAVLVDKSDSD

T3: His-ubiquitin- and GFP-tagged Cavin1-ΔDR1 (recombinant) (mouse) (UniProt O54724)
T3 sequence: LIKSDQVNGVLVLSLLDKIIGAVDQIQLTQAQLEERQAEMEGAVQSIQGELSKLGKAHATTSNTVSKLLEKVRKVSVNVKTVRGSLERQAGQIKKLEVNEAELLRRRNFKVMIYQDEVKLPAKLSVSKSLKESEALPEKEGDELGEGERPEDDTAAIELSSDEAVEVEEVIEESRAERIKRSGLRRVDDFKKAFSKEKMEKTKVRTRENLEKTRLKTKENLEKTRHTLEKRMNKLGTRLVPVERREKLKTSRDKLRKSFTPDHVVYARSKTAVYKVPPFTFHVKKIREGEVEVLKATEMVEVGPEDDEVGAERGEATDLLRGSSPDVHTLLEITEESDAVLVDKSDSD

T4: His-ubiquitin- and GFP-tagged Cavin1-ΔDR3 (recombinant) (mouse) (UniProt O54724)
T4 sequence: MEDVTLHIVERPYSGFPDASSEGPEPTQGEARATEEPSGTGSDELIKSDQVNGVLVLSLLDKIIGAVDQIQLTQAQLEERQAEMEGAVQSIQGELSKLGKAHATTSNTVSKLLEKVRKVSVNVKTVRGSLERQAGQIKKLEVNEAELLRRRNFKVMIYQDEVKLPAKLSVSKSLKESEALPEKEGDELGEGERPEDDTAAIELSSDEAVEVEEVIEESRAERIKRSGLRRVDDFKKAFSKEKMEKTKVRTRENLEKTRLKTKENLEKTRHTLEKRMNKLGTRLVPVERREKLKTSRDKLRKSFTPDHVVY


Experiments:
[1] = target: T1, unlabelled purified Cavin1 (mouse); assay: in vitro co-phase separation (LLPS) assay, fluorescence microscopy; purified CAV1 constructs mixed with purified Cavin1 constructs, dextran T-500 (1.25% w/v) added; recruitment of CAV1 to Cavin1 droplets; both purified
[2] = target: T2, His-ubiquitin- and GFP-tagged full-length Cavin1 (recombinant GFP-Cavin1) (mouse); assay: as above
[3] = target: T3, His-ubiquitin- and GFP-tagged Cavin1-ΔDR1 (recombinant) (mouse); assay: as above
[4] = target: T4, His-ubiquitin- and GFP-tagged Cavin1-ΔDR3 (recombinant) (mouse); assay: as above
[5] = target: Caveolin1 (CAV1), endogenous in PC3 cells (human (endogenous in PC3)) (UniProt Q03135); assay: proximity ligation; PC3 cells transfected with GFP-tagged Cavin1 constructs; PLA between GFP-tagged proteins and endogenous CAV1, dots per cell
[6] = target: GFP-Cavin1(1–345) (mouse) (UniProt O54724); assay: fluorescence correlation spectroscopy (FCS); GFP-tagged proteins in MCF7 cell lysates (cells lack cavins and caveolins); 25 mM Tris pH 7.4, 150 mM NaCl; diffusivity as read-out of self-association
[7] = target: T4, His-ubiquitin- and GFP-tagged Cavin1-ΔDR3 (recombinant) (mouse); assay: fluorescence correlation spectroscopy (FCS); purified ubiquitin- and GFP-tagged proteins at 0.1 µM in 20 mM HepesKOH pH 7.6 with 150 mM NaCl, compared with 500 mM NaCl; diffusivity as read-out of self-association; both purified
[8] = target: GFP-tagged full-length Cavin1 expressed in MCF7 cells (mouse) (UniProt O54724); assay: fluorescence correlation spectroscopy (FCS); GFP-tagged proteins in MCF7 cell lysates (cells lack cavins and caveolins); 25 mM Tris pH 7.4, 150 mM NaCl; diffusivity as read-out of self-association

Row | Molecule | binding [1] | binding [2] | further results
1 | mCherry-CAV1(1–30) (from UniProt Q03135 1-30) (domain or fragment) | no binding | no binding | 
2 | mCherry-CAV1(1–100) (from UniProt Q03135 1-100) (domain or fragment) | binds | binds | binding [3]: binds; binding [4]: no binding
3 | mCherry-CAV1(1–100) M1 (from UniProt Q03135 1-100) (domain or fragment) |  | binds | 
4 | mCherry-CAV1(30–80) (from UniProt Q03135 30-80) (domain or fragment) | no binding | no binding | 
5 | GFP-Cavin1(1–345) (domain or fragment, UniProt O54724 1-345) MEDVTLHIVERPYSGFPDASSEGPEPTQGEARATEEPSGTGSDELIKSDQVNGVLVLSLLDKIIGAVDQIQLTQAQLEERQAEMEGAVQSIQGELSKLGKAHATTSNTVSKLLEKVRKVSVNVKTVRGSLERQAGQIKKLEVNEAELLRRRNFKVMIYQDEVKLPAKLSVSKSLKESEALPEKEGDELGEGERPEDDTAAIELSSDEAVEVEEVIEESRAERIKRSGLRRVDDFKKAFSKEKMEKTKVRTRENLEKTRLKTKENLEKTRHTLEKRMNKLGTRLVPVERREKLKTSRDKLRKSFTPDHVVYARSKTAVYKVPPFTFHVKKIREGEVEVLKATEMVE |  |  | binding [5]: binds; binding [6]: binds
6 | GFP-Cavin1-ΔDR3, Cavin1(1–310), expressed in mammalian cells (domain or fragment, UniProt O54724 1-310) MEDVTLHIVERPYSGFPDASSEGPEPTQGEARATEEPSGTGSDELIKSDQVNGVLVLSLLDKIIGAVDQIQLTQAQLEERQAEMEGAVQSIQGELSKLGKAHATTSNTVSKLLEKVRKVSVNVKTVRGSLERQAGQIKKLEVNEAELLRRRNFKVMIYQDEVKLPAKLSVSKSLKESEALPEKEGDELGEGERPEDDTAAIELSSDEAVEVEEVIEESRAERIKRSGLRRVDDFKKAFSKEKMEKTKVRTRENLEKTRLKTKENLEKTRHTLEKRMNKLGTRLVPVERREKLKTSRDKLRKSFTPDHVVY |  |  | binding [5]: no binding
7 | His-ubiquitin- and GFP-tagged Cavin1-ΔDR3 (recombinant) (domain or fragment, UniProt O54724 1-310) MEDVTLHIVERPYSGFPDASSEGPEPTQGEARATEEPSGTGSDELIKSDQVNGVLVLSLLDKIIGAVDQIQLTQAQLEERQAEMEGAVQSIQGELSKLGKAHATTSNTVSKLLEKVRKVSVNVKTVRGSLERQAGQIKKLEVNEAELLRRRNFKVMIYQDEVKLPAKLSVSKSLKESEALPEKEGDELGEGERPEDDTAAIELSSDEAVEVEEVIEESRAERIKRSGLRRVDDFKKAFSKEKMEKTKVRTRENLEKTRLKTKENLEKTRHTLEKRMNKLGTRLVPVERREKLKTSRDKLRKSFTPDHVVY |  |  | binding [7]: no binding (tested: 0.1 µM)
8 | His-ubiquitin- and GFP-tagged full-length Cavin1 (recombinant GFP-Cavin1) (natural protein, mouse, UniProt O54724 1-392, looked up, Cavin1, mouse, residues 1-392; also called purified recombinant GFP-Cavin1; source: E. coli Rosetta 2 (DE3), purified (TALON, Superose 6 SEC); not shown: His6-ubiquitin, N-terminal, kept; GFP, C-terminal, kept) MEDVTLHIVERPYSGFPDASSEGPEPTQGEARATEEPSGTGSDELIKSDQVNGVLVLSLLDKIIGAVDQIQLTQAQLEERQAEMEGAVQSIQGELSKLGKAHATTSNTVSKLLEKVRKVSVNVKTVRGSLERQAGQIKKLEVNEAELLRRRNFKVMIYQDEVKLPAKLSVSKSLKESEALPEKEGDELGEGERPEDDTAAIELSSDEAVEVEEVIEESRAERIKRSGLRRVDDFKKAFSKEKMEKTKVRTRENLEKTRLKTKENLEKTRHTLEKRMNKLGTRLVPVERREKLKTSRDKLRKSFTPDHVVYARSKTAVYKVPPFTFHVKKIREGEVEVLKATEMVEVGPEDDEVGAERGEATDLLRGSSPDVHTLLEITEESDAVLVDKSDSD |  |  | binding [8]: binds
9 | GFP-Cavin1(1–330) (domain or fragment, UniProt O54724 1-330) MEDVTLHIVERPYSGFPDASSEGPEPTQGEARATEEPSGTGSDELIKSDQVNGVLVLSLLDKIIGAVDQIQLTQAQLEERQAEMEGAVQSIQGELSKLGKAHATTSNTVSKLLEKVRKVSVNVKTVRGSLERQAGQIKKLEVNEAELLRRRNFKVMIYQDEVKLPAKLSVSKSLKESEALPEKEGDELGEGERPEDDTAAIELSSDEAVEVEEVIEESRAERIKRSGLRRVDDFKKAFSKEKMEKTKVRTRENLEKTRLKTKENLEKTRHTLEKRMNKLGTRLVPVERREKLKTSRDKLRKSFTPDHVVYARSKTAVYKVPPFTFHVKKI |  |  | binding [5]: no binding

Further lines, with some results ahead:

Row | binding [1] | binding [2] | Molecule | further results
10 | binds |  | full length CAV1 fused with maltose binding protein (MBP) and GFP-binding nanobody protein (GBP) (from UniProt Q03135 1-178) | 
11 | no binding | no binding | mCherry-CAV1(1–80) (from UniProt Q03135 1-80) (domain or fragment) | 
